Assay results taken from PubChem BioAssay AID1159614 (National Center for Advancing Translational Sciences (NCATS), 2016).
Among all 45,000 compounds or so, about 65 (0.1%) were called active. Calls come from the whole dose curve; as a rule, active = well fitted activation curve with a large enough effect; inconclusive = small, poorly fitted or top-dose-only effect; inactive = no such curve, though single readings can be large or run the other way. Some of the results follow.

target: Galactocerebrosidase (Homo sapiens) (UniProt P54803); experiment: A Novel Cell-Based Assay to Identify Small Molecules for B -Galactocerebrosidase; settings: 145M-Twi-hGALC-G270D cells, HMU-beta-Gal fluorescence, 48 h; series mostly up to 57.5 µM; activation: at the top concentration; note: 0% is about no effect; nearly all actives have a fitted effect of over 65% in size
Sequence of UniProt P54803 (P54803 whole entry, looked up): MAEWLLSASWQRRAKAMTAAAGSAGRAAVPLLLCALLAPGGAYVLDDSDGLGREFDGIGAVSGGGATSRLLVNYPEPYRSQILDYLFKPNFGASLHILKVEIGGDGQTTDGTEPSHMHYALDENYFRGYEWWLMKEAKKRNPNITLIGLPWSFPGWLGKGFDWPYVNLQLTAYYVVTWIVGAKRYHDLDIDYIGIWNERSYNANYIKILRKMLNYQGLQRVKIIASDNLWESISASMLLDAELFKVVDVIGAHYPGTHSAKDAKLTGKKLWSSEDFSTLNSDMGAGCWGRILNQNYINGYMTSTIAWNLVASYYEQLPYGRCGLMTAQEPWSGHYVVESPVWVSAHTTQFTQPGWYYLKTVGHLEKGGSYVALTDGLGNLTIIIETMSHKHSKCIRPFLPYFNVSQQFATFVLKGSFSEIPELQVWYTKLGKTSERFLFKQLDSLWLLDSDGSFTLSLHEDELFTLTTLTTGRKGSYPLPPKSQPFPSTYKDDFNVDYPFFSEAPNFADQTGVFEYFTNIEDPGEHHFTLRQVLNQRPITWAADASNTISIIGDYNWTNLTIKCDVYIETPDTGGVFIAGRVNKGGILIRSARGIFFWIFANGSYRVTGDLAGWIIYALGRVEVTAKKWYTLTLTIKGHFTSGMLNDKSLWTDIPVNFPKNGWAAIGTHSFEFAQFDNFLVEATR
Method in brief: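 qHTS, 1536-well; 145M-Twi-hGALC-G270D cells (WT line also made) in DMEM/F12 + 10% FBS; compound incubation on live cells; HMU-β-gal 0.1 mM final, pH 5.2, NaTC; carbonate stop; fluorescence increase = enhanced residual activity.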

activation, inactive:
CCN(CC)CCNC(=O)c1sc2nc(C)cc(C)c2c1-n1cccc1 -16.3%
CCOC(=O)c1ccc(NC(=O)c2cccc3c(=O)c4c([nH]c23)CCCC4)cc1 -8.95%
CCc1ccccc1NC(=O)Cn1c(C(=O)OC)cc2oc(C)cc21 -10.3%
COc1ccc(NC(=O)Cn2ccn(Cc3ccccc3)c(=O)c2=O)cc1Cl 1.06%
CC(C)Oc1ccc(CNC(=O)c2ccc3c(c2)N(Cc2ccc(F)cc2)CCS3)cc1 -13.5%
O=C(C1CCCCC1)N(Cc1cccnc1)c1nc2c(F)cccc2s1 12.4%
Clc1ccccc1CNc1nc2ccccc2c2nc(-c3ccccc3)nn12 14.6%
CCOC(=O)c1cc(-c2ccccc2)n(-c2cccc(C(=O)NC(C)CC)c2)c1C (configuration not stated) -11.2%
O=C(Cn1ncc2c3ccccc3n(Cc3ccc(F)cc3)c2c1=O)NC1CCCCCC1 -12.7%
CCn1c(CN2CCCCC2)nc2cc(NC(=O)COc3cc(C)ccc3C(C)C)ccc21 -17.3%
Cc1ccc(N(C)S(=O)(=O)c2ccc(-c3cnc(C4CC4)o3)cc2)cc1 -15.8%
COc1ccc(Nc2nc(-c3ccccc3)c3cc(Br)ccc3n2)cc1 -29.4%
COc1cc2c(cc1OC)C(COc1ccccc1OC)N(C(=O)c1ccc(S(=O)(=O)N3CCCC3)cc1)CC2 (configuration not stated) -19.7%
Cc1ccc(C)c(NC(=O)N2CCN(c3nnc(C)c4c(C)n(-c5ccccc5)nc34)CC2)c1 -19.1%
Cn1cc(C(=O)N2CCN(c3cccc(Cl)c3)CC2)c(=O)c2cc(S(=O)(=O)N3CCCC3)ccc21 3.62%
COc1ccc(C)cc1NC(=O)CN1CCCN(S(=O)(=O)c2ccc(Br)cc2)CC1 -17.2%
CCOc1ccccc1NC(=O)c1c(NC(=O)Cc2ccccc2)sc2c1CCCC2 -6.04%
COC(=O)CSCc1nc(-c2ccc(C(=O)OC)cc2)oc1C -23%
O=C(CCNS(=O)(=O)c1cccc2nonc12)Nc1ccc(F)cc1 -10.8%
COc1ccc(N2CCN(C(=O)c3cn(C4CCCCC4)c(=O)c4c3c3ccccc3n4C)CC2)cc1 -6.13%
COC(=O)c1cccc(Nc2c(-c3ccc(O)cc3)nc3nc[nH]n23)c1 -11.5%
CCOc1ccc(NC(=O)CSc2ccc3ccccc3n2)cc1 -1.74%
COC(=O)c1cc(OC)c(OC)c(OC)c1NC(=O)c1cc(=O)n(C)c(=O)n1C -10.7%
COCCCNC(=O)CN1C(=O)COc2ccc(S(=O)(=O)N3CCOCC3)cc21 21.6%
CCOC(=O)C1CCCN(C(=O)c2cc3c(=O)n(C)c4ccccc4c3s2)C1 (configuration not stated) -9.17%
Cc1c(CNC(C)c2ccccc2)c(C(=O)O)c(C)n1Cc1c(F)cccc1Cl (configuration not stated) -7.83%

Potency, inactive:
O=C(O)Cc1cccc2ccccc12
